Measurements: publication PMC8560823, “Structural insights into the clustering and activation of Tie2 receptor mediated by Tie2 agonistic antibody” (Nature Communications, 2021)

Biological target: the molecule itself
Test: SEC; fluorescence size-exclusion chromatography (FSEC) of full-length Tie2-GFP solubilised from HEK293F membranes by LMNG-CHS

B1: full-length Tie2-GFP wild-type (receptor, human, UniProt Q02763 23-1124, looked up)
chain: AMDLILINSLPLVSDAETSLTCIASGWRPHEPITIGRDFEALMNQHQDPLEVTQDVTREWAKKVVWKREKASKINGAYFCEGRVRGEAIRIRTMKMRQQASFLPATLTMTVDKGDNVNISFKKVLIKEEDAVIYKNGSFIHSVPRHEVPDILEVHLPHAQPQDAGVYSARYIGGNLFTSAFTRLIVRRCEAQKWGPECNHLCTACMNNGVCHEDTGECICPPGFMGRTCEKACELHTFGRTCKERCSGQEGCKSYVFCLPDPYGCSCATGWKGLQCNEACHPGFYGPDCKLRCSCNNGEMCDRFQGCLCSPGWQGLQCEREGIQRMTPKIVDLPDHIEVNSGKFNPICKASGWPLPTNEEMTLVKPDGTVLHPKDFNHTDHFSVAIFTIHRILPPDSGVWVCSVNTVAGMVEKPFNISVKVLPKPLNAPNVIDTGHNFAVINISSEPYFGDGPIKSKKLLYKPVNHYEAWQHIQVTNEIVTLNYLEPRTEYELCVQLVRRGEGGEGHPGPVRRFTTASIGLPPPRGLNLLPKSQTTLNLTWQPIFPSSEDDFYVEVERRSVQKSDQQNIKVPGNLTSVLLNNLHPREQYVVRARVNTKAQGEWSEDLTAWTLSDILPPQPENIKISNITHSSAVISWTILDGYSISSITIRYKVQGKNEDQHVDVKIKNATITQYQLKGLEPETAYQVDIFAENNIGSSNPAFSHELVTLPESQAPADLGGGKMLLIAILGSAGMTCLTVLLAFLIILQLKRANVQRRMAQAFQNVREEPAVQFNSGTLALNRKVKNNPDPTIYPVLDWNDIKFQDVIGEGNFGQVLKARIKKDGLRMDAAIKRMKEYASKDDHRDFAGELEVLCKLGHHPNIINLLGACEHRGYLYLAIEYAPHGNLLDFLRKSRVLETDPAFAIANSTASTLSSQQLLHFAADVARGMDYLSQKQFIHRDLAARNILVGENYVAKIADFGLSRGQEVYVKKTMGRLPVRWMAIESLNYSVYTTNSDVWSYGVLLWEIVSLGGTPYCGMTCAELYEKLPQGYRLEKPLNCDDEVYDLMRQCWREKPYERPSFAQILVSLNRMLEERKTYVNTTLYEKFTYAGIDCSAEEAA
notes: signal peptide in the construct; full-length human Tie2, residues 1–1124; also called Tie2 WT; WT Tie2; source: HEK293F membranes, solubilised with LMNG-CHS (FSEC); HEK293T, transiently transfected (cell assays); not shown: eGFP, C-terminal, kept
- stoichiometry N: 2
